# According to the supplement of paper PMC8728848:
# The list shows a part of the results.
# B1: InvD YPIII (Yersinia pseudotuberculosis), B1JSC0 (protein)
# chain: MIKYFSFFKKPEPIVGILPNRQSHHILPTHIRRVAWGTLLLQLFIPLSVSFSPAIAAMKASKADTMVSYSSTEPYVLGSGETVAMVAKKYGITVDELKKINIYRTFSRPFTALTTGDEIDIPRKASPFSVDNNKDNRLSVENTLAGHAVAGATALSNGDVAKSGERMVRSAASNEFNNSAQQWLSQFGTARVQLNINDDFHLDGSAADVLIPLYDNEKSILFTQLGARNKDSRNTVNMGAGVRTFQGNWMYGANTFFDNDLTGKNRRIGVGAEAWTDYLKLSANNYFGITDWHQSRDFIDYNERPANGYDLRAEAYLPSYPQLGGKAMYEKYRGDDVALFGKDNRQKNPHAITAGVNYTPIPLVTIGAEHRAGKGGQNDSNINFQLNYRLGETWQSHIDPSAVAASRTLAGSRYDLVERNNHIVLDYQKQNLVRLSLPDSLAGDPFSQLSVTAQVTATHGLERIDWQSAELMAAGGVLKQTSKNGLEITLPEYQMNRTGGNSYILNAIAYDTQGNASSQASMLITVNAQKINIANSTLVAVPINIEANNSDTSVVTLTLKDDNNIPVTGQDVTFLSPLGTLSAMTDSGNGVYTATLTAGTVSGTTAVSSNINGSALDMTPATVTLNGNSGELSITHSMLVAAPVNIEANGSDTSVVTLTLRDSNNNPVTGQTVTFAGTLGTLGAVTEGSSGVYTATLTAGIMVGTSSITASVNSTALGVTPATVTLNGDSGNLSTTNSTLVAAPVNIEANSSDTSVVTLTLRDNNNNPVTGQTVVFTSTLGTLGNVTEQASGVYTATLTAGTVSGVASLSVSVGGNALGVTPATVTLNGDSGNLSTTNSTLVAAPVNIEANSSDTSVVTLTLRDNNNNPVTGQTVNFAGTLGTLGTVSEGSSGVYTTTLTAGTVAGVASLSVNVGGNALGVTPATVTLNGNSGNLSATNSTLVAAPVNIEANSSDTSVVTLTLRDNNNNPVTGQTVAFTSTLGTLGNVTEQASGVYTATLTAGTVSGVASLSVSVNSNALGVTPATVTLNGDSGNLSTTNSTLVAAPVNIEANSSDTSVVTLTLRDNNNNPVTGQTVAFTSTLGTLGNVTEQASGLYTATLTAGTVSGVASLSVNVGGNALGVTPATVTLNGDSGNLSATNSTLVAAPVNIEANSSDTSVVTLTLRDNNNNPVTGQTVAFTSTLGTLGNVTEQASGLYTATLTAGTVSGVASLSVNVGGTALGVTPATVTLNGDSGNLSTTNSTLVAAPVNIEANSSDTSVVTLTLRDNNNNPVTGQTVAFTSTLGTLGNVTEQASGLYTATLTAGTVSGVASLSVSVNSTALGVTPATVTLNGDSGNLSTTNSTLVAAPVNIEANSSDTSVVTLTLRDNNNNPVTGQTVAFTSTLGTLGNVTEQASGVYTATLTAGTVAGVASLSVNVGGNALGVTPATVTLNGDSGNLSTTNSTLVAAPVNIEANSSDTSVVTLTLRDNNNNPVTGQTVAFTSTLGTLGNVTEQASGVYTATLTAGTVSGVASLSVSVGSSALGVTPATVTLNGDSGNLSTTNSTLVAAPVNIEANNSDTSVVTLTLRDNNNNPVTGQTVAFTSTLGTLGNVTEQASGVYTATLTAGTVSGVASLSVSVNSNALGVTPATVTLNGDSGNLSTTNSTLVAAPVNIEANSSDTSVVTLTLRDNNNNPVTGQTVVFTSTLGTLGNVTEQASGLYTATLTAGTVSGVASLSVSVGGNALGVTGNITLAPGALDAARSILAVNKPSINADDRIGSTITFTAQDAQGNAITGLDIAFMTDLENSQIMTLVDHNDGTYTANINGTQTGIANIAVQSSGATIAGLAATMVTITPGAWNTTQATPVMTVALPITTCQSSSGVYKRYYIGIVTHELYDNYGNEISGILTYNLGAGRYTTVTSQNSSVSGSNGLTRRSNSPVSHFILTSDAYTSQAACYAERIANVNVTITVTAITDDFKTSAVNKVFILGTGSN
# Legend:
# Assay in all cases: glycan array binding signal (z-score within array); higher = stronger binding
# Details in all cases: glycan notation: IUPAC condensed, linker removed
# Gal6S(b1-4)Glc = target: Gal6S(b1-4)Glc
# Method in brief: (§1)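 Negative Z-scores can be read as non-binding. The Z-score is calculated within each array and then averaged across arrays of one protein sequence at different concentrations or buffers and across linkers. Arrays, 3228 in all, were curated from the Consortium for Functional Glycomics database and kept only where the protein sequence was available.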
# Gal6S(b1-4)Glc6S = target: Gal6S(b1-4)Glc6S
# Method in brief: as §1
# Gal6S(b1-4)GlcNAc = target: Gal6S(b1-4)GlcNAc
# Method in brief: as §1
# Gal6S(b1-4)GlcNAc6S = target: Gal6S(b1-4)GlcNAc6S
# Method in brief: as §1
# GalNAc(a1-3)Gal = target: GalNAc(a1-3)Gal
# Method in brief: as §1
# GalNAc(a1-3)GalNAc = target: GalNAc(a1-3)GalNAc
# Method in brief: as §1
# [1] = target: GalNAc(a1-3)GalNAc(b1-3)Gal(a1-4)Gal(b1-4)Glc
# Method in brief: as §1
# [2] = target: GalNAc(a1-3)GalNAc(b1-3)Gal(a1-4)Gal(b1-4)GlcNAc
# Method in brief: as §1
# GalNAc(b1-3)Gal = target: GalNAc(b1-3)Gal
# Method in brief: as §1
# [3] = target: GalNAc(b1-3)Gal(a1-4)Gal(b1-4)GlcNAc
# Method in brief: as §1
# [4] = target: GalNAc(b1-3)Gal(a1-4)Gal(b1-4)GlcNAc(b1-3)Gal(b1-4)Glc
# Method in brief: as §1
# [5] = target: GalNAc(b1-3)Gal(a1-6)Gal(b1-4)Glc
# Method in brief: as §1
# GalNAc(b1-3)GalNAc = target: GalNAc(b1-3)GalNAc
# Method in brief: as §1
# GalNAc(b1-3)GlcNAc = target: GalNAc(b1-3)GlcNAc
# Method in brief: as §1
# GalNAc(b1-4)Gal(b1-4)Glc = target: GalNAc(b1-4)Gal(b1-4)Glc
# Method in brief: as §1
# GalNAc(b1-4)GlcNAc = target: GalNAc(b1-4)GlcNAc
# Method in brief: as §1
# [6] = target: GalNAc(b1-4)GlcNAc(b1-2)Man
# Method in brief: as §1
# [7] = target: GalNAc(b1-4)GlcNAc(b1-2)Man(a1-3)[GalNAc(b1-4)GlcNAc(b1-2)Man(a1-6)]Man(b1-4)GlcNAc(b1-4)GlcNAc
# Method in brief: as §1
# [8] = target: GalNAc(b1-4)GlcNAc(b1-3)GalNAc(b1-4)GlcNAc
# Method in brief: as §1
# GalNAc(b1-4)GlcNAc6S = target: GalNAc(b1-4)GlcNAc6S
# Method in brief: as §1
# GalNAc(b1-6)GalNAc = target: GalNAc(b1-6)GalNAc
# Method in brief: as §1
# GalNAc3S(b1-4)GlcNAc = target: GalNAc3S(b1-4)GlcNAc
# Method in brief: as §1
# GalNAc3S(b1-4)GlcNAc3S = target: GalNAc3S(b1-4)GlcNAc3S
# Method in brief: as §1
# [9] = target: GalNAc3S(b1-4)[Fuc(a1-3)]GlcNAc
# Method in brief: as §1
# GalNAc4S6S(b1-4)GlcNAc = target: GalNAc4S6S(b1-4)GlcNAc
# Method in brief: as §1
# GalNAc6S(b1-4)GlcNAc = target: GalNAc6S(b1-4)GlcNAc
# Method in brief: as §1
# Glc(a1-4)Glc = target: Glc(a1-4)Glc
# Method in brief: as §1
# [10] = target: Glc(a1-4)Glc(a1-4)Glc(a1-4)Glc
# Method in brief: as §1
# Glc(a1-6)Glc(a1-6)Glc = target: Glc(a1-6)Glc(a1-6)Glc
# Method in brief: as §1
# [11] = target: Glc(a1-6)Glc(a1-6)Glc(a1-6)Glc
# Method in brief: as §1
# Glc(b1-4)Glc = target: Glc(b1-4)Glc
# Method in brief: as §1
# Glc(b1-6)Glc = target: Glc(b1-6)Glc
# Method in brief: as §1
# GlcA(b1-3)Gal = target: GlcA(b1-3)Gal
# Method in brief: as §1
# GlcA(b1-3)GlcNAc = target: GlcA(b1-3)GlcNAc
# Method in brief: as §1
# GlcA(b1-6)Gal = target: GlcA(b1-6)Gal
# Method in brief: as §1
# [12] = target: GlcA3S(b1-3)Gal(b1-4)GlcNAc(b1-2)Man
# Method in brief: as §1
# [13] = target: GlcA3S(b1-3)Gal(b1-4)GlcNAc(b1-3)Gal(b1-4)Glc
# Method in brief: as §1
# [14] = target: GlcNAc(a1-3)Gal(b1-4)GlcNAc
# Method in brief: as §1
# [15] = target: GlcNAc(a1-4)Gal(b1-3)GlcNAc
# Method in brief: as §1
# [16] = target: GlcNAc(a1-4)Gal(b1-4)GalNAc
# Method in brief: as §1
# [17] = target: GlcNAc(a1-4)Gal(b1-4)GlcNAc
# Method in brief: as §1
# [18] = target: GlcNAc(a1-4)Gal(b1-4)GlcNAc(b1-3)Gal(b1-4)Glc
# Method in brief: as §1
# [19] = target: GlcNAc(a1-4)Gal(b1-4)GlcNAc(b1-3)Gal(b1-4)GlcNAc
# Method in brief: as §1
# [20] = target: GlcNAc(a1-4)Gal(b1-4)GlcNAc(b1-3)Gal(b1-4)GlcNAc(b1-3)Gal(b1-4)GlcNAc
# Method in brief: as §1
# [21] = target: GlcNAc(a1-4)Gal(b1-4)GlcNAc(b1-3)Gal(b1-4)[Fuc(a1-3)]GlcNAc(b1-3)Gal(b1-4)[Fuc(a1-3)]GlcNAc
# Method in brief: as §1
binder,measurement,setting,value
B1,glycan array binding signal (z-score),Gal6S(b1-4)Glc,-0.243
same,glycan array binding signal (z-score),Gal6S(b1-4)Glc6S,0.543
same,glycan array binding signal (z-score),Gal6S(b1-4)GlcNAc,-0.467
same,glycan array binding signal (z-score),Gal6S(b1-4)GlcNAc6S,-0.131
same,glycan array binding signal (z-score),GalNAc(a1-3)Gal,-0.135
same,glycan array binding signal (z-score),GalNAc(a1-3)GalNAc,-0.275
same,glycan array binding signal (z-score),[1],-0.352
same,glycan array binding signal (z-score),[2],-0.134
same,glycan array binding signal (z-score),GalNAc(b1-3)Gal,0.098
same,glycan array binding signal (z-score),[3],-0.259
same,glycan array binding signal (z-score),[4],-0.125
same,glycan array binding signal (z-score),[5],-0.316
same,glycan array binding signal (z-score),GalNAc(b1-3)GalNAc,-0.226
same,glycan array binding signal (z-score),GalNAc(b1-3)GlcNAc,-0.286
same,glycan array binding signal (z-score),GalNAc(b1-4)Gal(b1-4)Glc,0.025
same,glycan array binding signal (z-score),GalNAc(b1-4)GlcNAc,0.01
same,glycan array binding signal (z-score),[6],-0.243
same,glycan array binding signal (z-score),[7],-0.078
same,glycan array binding signal (z-score),[8],0.272
same,glycan array binding signal (z-score),GalNAc(b1-4)GlcNAc6S,0.354
same,glycan array binding signal (z-score),GalNAc(b1-6)GalNAc,-0.011
same,glycan array binding signal (z-score),GalNAc3S(b1-4)GlcNAc,0.02
same,glycan array binding signal (z-score),GalNAc3S(b1-4)GlcNAc3S,1.04
same,glycan array binding signal (z-score),[9],-0.139
same,glycan array binding signal (z-score),GalNAc4S6S(b1-4)GlcNAc,0.048
same,glycan array binding signal (z-score),GalNAc6S(b1-4)GlcNAc,-0.302
same,glycan array binding signal (z-score),Glc(a1-4)Glc,-0.36
same,glycan array binding signal (z-score),[10],-0.206
same,glycan array binding signal (z-score),Glc(a1-6)Glc(a1-6)Glc,-0.313
same,glycan array binding signal (z-score),[11],-0.312
same,glycan array binding signal (z-score),Glc(b1-4)Glc,-0.166
same,glycan array binding signal (z-score),Glc(b1-6)Glc,-0.147
same,glycan array binding signal (z-score),GlcA(b1-3)Gal,0.38
same,glycan array binding signal (z-score),GlcA(b1-3)GlcNAc,-0.299
same,glycan array binding signal (z-score),GlcA(b1-6)Gal,0.048
same,glycan array binding signal (z-score),[12],-0.258
same,glycan array binding signal (z-score),[13],-0.081
same,glycan array binding signal (z-score),[14],-0.108
same,glycan array binding signal (z-score),[15],-0.212
same,glycan array binding signal (z-score),[16],-0.218
same,glycan array binding signal (z-score),[17],-0.244
same,glycan array binding signal (z-score),[18],-0.175
same,glycan array binding signal (z-score),[19],0.308
same,glycan array binding signal (z-score),[20],-0.246
same,glycan array binding signal (z-score),[21],1.22
